Source: publication PMC4336329 (PLoS ONE, 2015)
Hit rate of the full screen: of about 310,000 compounds, about 2,200 (0.71%) showed an effect of 50% or more. The effect is printed as a negative number. This is one part of the list.

biological target: human ether-à-go-go-related gene (hERG) potassium channel (human, UniProt Q12809); assay: primary screen, population patch clamp on CHO cells stably expressing hERG
Sequence (Q12809 whole entry, looked up): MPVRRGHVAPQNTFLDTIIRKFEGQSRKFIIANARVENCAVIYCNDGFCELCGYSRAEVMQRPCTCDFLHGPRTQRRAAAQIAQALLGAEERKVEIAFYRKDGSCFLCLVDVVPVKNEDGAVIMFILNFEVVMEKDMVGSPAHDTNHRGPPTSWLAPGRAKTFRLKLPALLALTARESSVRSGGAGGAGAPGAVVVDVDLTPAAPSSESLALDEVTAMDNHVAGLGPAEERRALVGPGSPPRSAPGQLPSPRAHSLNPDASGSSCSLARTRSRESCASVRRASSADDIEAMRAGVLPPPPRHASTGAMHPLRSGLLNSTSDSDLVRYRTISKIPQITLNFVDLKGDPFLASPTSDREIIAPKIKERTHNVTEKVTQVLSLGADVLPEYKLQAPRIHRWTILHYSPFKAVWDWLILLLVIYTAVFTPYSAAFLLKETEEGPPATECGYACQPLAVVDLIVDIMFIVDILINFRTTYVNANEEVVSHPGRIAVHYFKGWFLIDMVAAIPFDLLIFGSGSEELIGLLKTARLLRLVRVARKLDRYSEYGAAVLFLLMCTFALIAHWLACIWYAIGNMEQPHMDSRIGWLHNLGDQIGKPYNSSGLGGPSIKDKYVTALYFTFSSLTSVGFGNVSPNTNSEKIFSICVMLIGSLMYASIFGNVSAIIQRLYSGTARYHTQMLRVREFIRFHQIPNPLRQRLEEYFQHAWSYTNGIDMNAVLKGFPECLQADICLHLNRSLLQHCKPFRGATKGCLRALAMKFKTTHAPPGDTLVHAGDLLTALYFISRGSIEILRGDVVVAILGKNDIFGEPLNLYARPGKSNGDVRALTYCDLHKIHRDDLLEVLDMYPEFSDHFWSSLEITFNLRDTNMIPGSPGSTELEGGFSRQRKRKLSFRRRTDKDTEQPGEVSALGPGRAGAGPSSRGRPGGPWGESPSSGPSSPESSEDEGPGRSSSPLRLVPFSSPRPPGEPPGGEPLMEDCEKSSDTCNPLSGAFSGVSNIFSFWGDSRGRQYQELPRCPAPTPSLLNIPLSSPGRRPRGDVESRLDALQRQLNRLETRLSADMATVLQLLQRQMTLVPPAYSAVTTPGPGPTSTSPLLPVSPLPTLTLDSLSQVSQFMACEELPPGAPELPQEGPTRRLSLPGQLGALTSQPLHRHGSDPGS

Row | SMILES | hERG current change (%, negative = inhibition) at 1uM [%]
1 | Cc1ccc(NC2=NC(c3ccccc3)n3c(nc(C)cc3=O)N2)cc1 (centres unmarked) | 8.23
2 | COc1ccc(Cl)cc1NC(=O)CN(C)C(=O)CCc1nc2ccccc2c(=O)[nH]1 | 1.33
3 | CCOC(=O)c1c(-c2ccc(C)s2)csc1NC(=O)c1cccs1 | 5.23
4 | O=C(Nc1ccc2ncccc2c1)c1cc(Cl)ccc1Cl | 12.6
5 | Fc1ccc2c(c1)C1C=CCC1C(c1cc3c(cc1Br)OCO3)N2 (centres unmarked) | 3.45
6 | CSc1ccccc1NC(=O)c1cccc(S(=O)(=O)N2CCN(C)CC2)c1 | 18.1
7 | O=C(NCc1nc2ccccc2[nH]1)c1ccc(S(=O)(=O)N2CCCC2)cc1 | 8.19
8 | O=C(COC(=O)c1cccc(S(=O)(=O)N2CCCC2)c1)NCc1ccccc1 | 15.3
9 | CCOc1cc(C)c(S(=O)(=O)NC2CCCCC2)cc1C | 9.26
10 | O=C(O)c1ccc(N/N=C/c2ccc(-c3cc(Cl)ccc3Cl)o2)cc1 | 8.83
11 | CC(C)c1c(O)nc(SCCOc2ccc(Cl)cc2)[nH]c1=O | 8.93
12 | O=C(O)CCSc1nc2ccccc2n1-c1ccccc1 | 13.9
13 | Cc1ccc(-c2cc(-c3ccc(C)cc3)[n+](-c3ccccc3)c(-c3ccc(C)cc3)c2)cc1.[O-][Cl+3]([O-])([O-])[O-] | -77.3
14 | Cc1cc(NC(=O)CSc2nc(-c3ccco3)cc(C(F)(F)F)n2)n(-c2ccccc2)n1 | 18.3
15 | CCOc1ccccc1CNC(=O)c1ccc(Sc2ccc(Cl)cc2)c(NC(C)=O)c1 | 0.132
16 | CC(=O)NS(=O)(=O)c1cccnc1Nc1cccc(Cl)c1 | 8.83
17 | COC(=O)[C@H]1C[C@@H]1[C@H](NC(=O)c1ccccc1)c1ccccc1 | 5.41
18 | CCOC(=O)Cc1cc(-c2ccc(F)cc2)nc2ccc3ccccc3c12 | 10.1
19 | Cc1ccc(CNC(=O)CCS(=O)(=O)c2ccc(C)cc2)cc1 | -6.2
20 | O=C(COC(=O)c1cccs1)NCC1CCCCC1 | 17.4
21 | Cc1cc(C)nc(SCCC(=O)Nc2ccccc2)n1 | 0.0335
22 | CCOC(=O)C1(CC2CCCCO2)CCN(C(=O)Nc2ccccc2CC)CC1 (centres unmarked) | -7.98

Row | SMILES | hERG current change (%, negative = inhibition) at 1uM [%]
23 | O=C(Cc1cccs1)Nc1ccc(S(=O)(=O)N2CCCC2)cc1 | 16
24 | C=CC[C@]12C=C(OC)C(=O)C(OC)=C1O[C@@H](c1ccc3c(c1)OCO3)[C@H]2C | 14.8
25 | O=C(CCC(=O)Nc1ccccc1Cl)N/N=C/c1ccccc1 | 7.19
26 | CC1CC(=O)N(c2ccc(NCCc3ccccc3)c([N+](=O)[O-])c2)C1=O (centres unmarked) | -0.98
27 | COc1ccc(C2C(C(C)=O)=C(C)N=c3s/c(=C\c4cc(C)n(C)c4C)c(=O)n32)c(OC)c1 (centres unmarked) | -13.5
28 | CC(=O)N1CN2CN(C(C)=O)CC(C(=O)c3ccccc3)(C2)C1 | 11.5
29 | CC1CN(C2=CC(=O)CCC2)CC(C)O1 (centres unmarked) | 15.3
30 | Cc1ccc(C(=O)NCC(=O)OCC(=O)c2ccc3c(c2)OCCO3)cc1C | 15.7
31 | COc1cc(-c2cc(C(=O)Nc3c(Cl)cc(Cl)cc3Cl)c3ccccc3n2)cc(OC)c1OC | 0.191
32 | COc1ccc(S(=O)(=O)n2nc(C)cc2C)cc1OC | 4.44
33 | COc1ccc(CC2(C)OC(c3ccccc3)=NN2C(C)=O)cc1 (centres unmarked) | -6.7
34 | CCOC(=O)C(NC(=O)CC)(Nc1sc2c(c1C(=O)OC)CCN(C)C2)C(F)(F)F (centres unmarked) | 3.48
35 | O=C(Cn1cc(C(=O)C(F)(F)F)c2ccccc21)Nc1ccccc1F | 11
36 | Cc1ccccc1OCC(=O)NCC(c1ccco1)N1CCCCC1 (centres unmarked) | -11.6
37 | COc1ccc(CCNC(=O)c2nnn(CC(=O)Nc3ccc(C)cc3C)c2N)cc1OC | 10.8
38 | Cc1csc(SCC(=O)NC(C)C2CC3CCC2C3)n1 (centres unmarked) | 19.9
39 | Cc1nn(C(=O)CCCC(=O)NCc2ccccc2)c2ccccc12 | 11.8
40 | COCc1c(C(=O)OC/C(O)=C(\C#N)c2nc3ccccc3[nH]2)oc2ccccc12 | 18
41 | Cc1cc(C(=O)CSc2nnc(-c3cccc(F)c3)n2N)c(C)n1Cc1ccc2c(c1)OCO2 | 12
42 | Cc1ccc(CNC(=O)C2CC3Cn4c(nc5cc(C)c(C)cc54)C3N2C)o1 (centres unmarked) | -0.478
43 | O=S1(=O)N=C(Nc2nc3c(s2)CCCC3)c2ccccc21 | 3.74
44 | C#CC1(NC(=O)N(C)C)CCCCC1 | 3.48

Row | SMILES | hERG current change (%, negative = inhibition) at 1uM [%]
45 | Cc1cc(C)cc(N2C(=O)CC(Sc3ccccc3C(=O)O)C2=O)c1 (centres unmarked) | 11.8
46 | Brc1cc(-c2ccccc2)nc(-c2ccccc2)n1 | 5.97
47 | CN(CCc1ccccn1)C(=O)CCC1CCCN(C(=O)c2cccc(N(C)C)c2)C1 (centres unmarked) | 18.4
48 | CCOC(=O)c1cnc2ccc(C)cc2c1OCc1cc(F)cc(F)c1 | -0.796
49 | CNc1nc(-c2ccc3c(c2)CCN3S(=O)(=O)c2ccccc2)c(C)s1 | 7.96
50 | COc1ccc(CN2C(=O)NC(=O)/C(=C\c3ccc(OC)c(OC)c3OC)C2=O)cc1 | 14
51 | CCOC(=O)C1=C(c2ccccc2)Nc2ncnn2C1c1cc(OC)cc(OC)c1OC (centres unmarked) | 2.97
52 | O=Nc1[nH]c(=O)c(/C=C(\O)c2ccccc2)nc1NO | 10.2
53 | COc1ccc(C2=NN3C(=O)c4c(ccc(OC)c4OC)C3C2)cc1 (centres unmarked) | -1.75
54 | CC(=O)C1=C(O)C(=O)N(Cc2ccccc2)C1c1ccc([N+](=O)[O-])cc1 (centres unmarked) | 13.2
55 | CCOC(=O)C1=C(C)N(C)C(=O)NC1c1cccc(O)c1 (centres unmarked) | 9.71
56 | CC1CN(c2ccc([N+](=O)[O-])nc2)CC(C)O1 (centres unmarked) | 8.84
57 | COc1ccc(OCCCCn2c(CO)nc3ccccc32)cc1 | -0.942
58 | CCOC(=O)c1ccccc1NC(=O)c1cccc([N+](=O)[O-])c1 | 11.3
59 | O=C(O)CCCCCNC(=O)/C(=C\c1ccco1)NC(=O)c1ccco1 | 9.28
60 | C[C@@H]1CC[C@]2(O[C@H](CCO)C[C@H](O)[C@H]2O)O1 | 5.98
61 | CN(C(=O)CSc1nnc(N)s1)c1c(N)n(Cc2ccccc2)c(=O)[nH]c1=O | 12.1
62 | Cc1nc2ccccn2c1C(=O)N/N=C/c1ccc(F)cc1 | 8.5
63 | COc1cccc(/C=N/NC(=O)CC2C(=O)NN=C2C)c1O (centres unmarked) | -9.68
64 | CN1CCN(S(=O)(=O)c2ccc(=O)[nH]c2)CC1 | 10.3
65 | CC1(C)Cc2c(sc3c2c(=N)n(Cc2ccco2)c(=O)n3CC(=O)Nc2ccccc2)CO1 | 9.98
66 | COc1ccc(CCNC(=O)CN2C(=O)COc3ccc(S(=O)(=O)N4CCCC4)cc32)cc1OC | 16.9

Row | SMILES | hERG current change (%, negative = inhibition) at 1uM [%]
67 | Cc1ccc(C(=O)NNC(=O)c2ccc(S(=O)(=O)N3CCOCC3)cc2)cc1 | 8.19
68 | Cc1c(NC(=O)Nc2ccc(C(C)C)cc2)c(=O)n(-c2ccccc2)n1C | 8.33
69 | CCCCCn1c(=O)c(C(=O)Nc2cccc(C)n2)c(O)c2ccccc21 | 18.9
70 | CCN1CCN(C(=O)/C=C/c2cccc(Cl)c2)CC1 | 10.4
71 | Cc1ccc2sc(N3CCN(C(=O)c4ccc([N+](=O)[O-])o4)CC3)nc2c1C | 9.37
72 | CSc1ccccc1NC(=O)c1cc(-c2cccs2)on1 | 11.4
73 | Cc1ccc(-c2nc3ccccc3nc2-c2ccccc2)cc1 | 18.9
74 | O=C1CCC2(CC1)NC(=O)N(c1ccccc1)N2 | 14.9
75 | CCOC(=O)/C(=N\Nc1ccccc1Cl)N1CCN(Cc2ccccc2)CC1 | 14.3
76 | Cc1cccc(N(CC(=O)NCc2ccc3c(c2)OCO3)C(=O)CCC(=O)Nc2ccccn2)c1 | 4.35
77 | CC(C)(O)CC[C@H](OC(=O)c1ccccc1)[C@](C)(O)[C@H]1CC[C@@]2(O)C3=CC(=O)[C@@H]4C[C@@H](O)[C@H](O)C[C@]4(C)C3CC[C@]12C (some centres unmarked) | 15.3
78 | CC(C)CN(CC(C)C)C(=O)Cc1coc2ccc3ccccc3c12 | 6.52
79 | O=C(C1CCC(=O)N(C2CCCCCC2)C1)N1CCN(c2ccccc2Cl)CC1 (centres unmarked) | -2.5
80 | CCCCNC(=O)Cn1c(=O)c2c(ncn2CC)n(Cc2ccccc2)c1=O | 10.1
81 | COc1ccc(C(O)(C(C)C)C(CN2CCOCC2)c2ccccc2)cc1.Cl (centres unmarked) | 6.65
82 | COc1ccc(CCn2c(=N)c(S(=O)(=O)c3ccccc3)cc3c(=O)n4ccccc4nc32)cc1 | 10.8
83 | FC(F)(F)c1nc2ccccc2[nH]1 | 11.5
84 | Cc1ccc(S(=O)(=O)N2CN(Cc3ccco3)c3nc4ccccc4nc32)cc1 | 0.909
85 | Cc1ccc(C(=O)Nc2ccc(N3CCN(S(C)(=O)=O)CC3)cc2)cc1C | 15.4
86 | CC1(C(=O)O)CCC(C(=O)NCCc2ccccc2)C1(C)C (centres unmarked) | 14.5
